Measured values reported in the supplement of paper PMC4967469.

Columns and labels:
Experiment in all cases: Viability of human cancer cell lines after 72 h of drug (GDSC screen)
NVP-TAE684 = compound: COc1cc(N2CCC(N3CCN(C)CC3)CC2)ccc1Nc1ncc(Cl)c(Nc2ccccc2S(=O)(=O)C(C)C)n1 [NVP-TAE684]; settings: top dose 2 µM
Method: (§1)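 Human cancer cell lines in 384-well plates, medium with 10% serum, drug for 72 h over a 256-fold dose range (nine 2-fold or five 4-fold steps up to the top dose). Adherent lines were fixed and stained with the nucleic acid dye Syto60, suspension lines read with resazurin; signal relative to control wells, capped at 0 and 100%. One two-parameter sigmoid per drug and line, fitted in a mixed model over all curves with the slope shared within a line.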

JQ1 = compound: Cc1sc2c(c1C)C(c1ccc(Cl)cc1)=N[C@@H](CC(=O)OC(C)(C)C)c1nnc(C)n1-2 [JQ1]
Method: as §1

FTI-277 = compound: COC(=O)[C@H](CCSC)NC(=O)c1ccc(NC[C@@H](N)CS)cc1-c1ccccc1 [FTI-277]; settings: top dose 1.024 µM; top dose inferred
Method: as §1

YM155 = compound: COCC[n+]1c2c(n(Cc3cnccn3)c1C)C(=O)c1ccccc1C2=O [YM155]; settings: top dose 5.12 µM
Method: as §1

JNJ-26854165 = compound: c1ccc2c(CCNc3ccc(Nc4ccncc4)cc3)c[nH]c2c1 [JNJ-26854165]; settings: top dose 10 µM
Method: as §1

CGP-60474 = compound: OCCCNc1cc(-c2ccnc(Nc3cccc(Cl)c3)n2)ccn1 [CGP-60474]; settings: top dose 0.256 µM; top dose inferred
Method: as §1

AMG-706 = compound: CC1(C)CNc2cc(NC(=O)c3cccnc3NCc3ccncc3)ccc21 [AMG-706]; settings: top dose 2 µM; top dose inferred
Method: as §1

OSI-906 = compound: C[C@]1(O)C[C@@H](c2nc(-c3ccc4ccc(-c5ccccc5)nc4c3)c3c(N)nccn32)C1 [OSI-906]; settings: top dose 2.56 µM; top dose inferred
Method: as §1

Cyclopamine = compound: CC1=C2C[C@H]3[C@@H](CC=C4C[C@@H](O)CC[C@@]43C)[C@@H]2CC[C@]12O[C@@H]1C[C@H](C)CN[C@H]1[C@H]2C [Cyclopamine]; settings: top dose 16 µM; top dose inferred
Method: as §1

Belinostat = compound: O=C(/C=C/c1cccc(S(=O)(=O)Nc2ccccc2)c1)NO [Belinostat]; settings: top dose 20 µM; top dose inferred
Method: as §1

SB-715992 = compound: Cc1ccc(C(=O)N(CCCN)[C@@H](c2nc3cc(Cl)ccc3c(=O)n2Cc2ccccc2)C(C)C)cc1 [SB-715992]; settings: top dose 0.128 µM; top dose inferred
Method: as §1

NSC-207895 = compound: CN1CCN(c2ccc([N+](=O)[O-])c3no[n+]([O-])c23)CC1 [NSC-207895]; settings: top dose 20 µM; top dose inferred
Method: as §1

Docetaxel = compound: CC(=O)O[C@@]12CO[C@@H]1C[C@H](O)[C@@]1(C)C(=O)[C@H](O)C3=C(C)[C@@H](OC(=O)[C@H](O)[C@@H](NC(=O)OC(C)(C)C)c4ccccc4)C[C@@](O)([C@@H](OC(=O)c4ccccc4)[C@H]21)C3(C)C [Docetaxel]; settings: top dose 0.0125 µM
Method: as §1

JNK Inhibitor VIII = compound: CCOc1nc(NC(=O)Cc2cc(OC)ccc2OC)cc(N)c1C#N [JNK Inhibitor VIII]; settings: top dose 10 µM; top dose inferred
Method: as §1

[1] = top dose 1 µM, screen: GDSC drug entry 1218, top dose inferred
[2] = top dose 2.56 µM, screen: GDSC drug entry 163

Cell Line | AUC (NVP-TAE684) | AUC (JQ1; [1]) | IC50 (JQ1; [1]) [nM] | AUC (JQ1; [2]) | IC50 (JQ1; [2]) [nM] | AUC (FTI-277) | IC50 (FTI-277) [nM] | AUC (YM155) | IC50 (YM155) [nM] | AUC (JNJ-26854165) | IC50 (JNJ-26854165) [nM] | AUC (CGP-60474) | IC50 (CGP-60474) [nM] | AUC (AMG-706) | IC50 (AMG-706) [nM] | AUC (OSI-906) | IC50 (OSI-906) [nM] | AUC (Cyclopamine) | IC50 (Cyclopamine) [nM] | AUC (Belinostat) | IC50 (Belinostat) [nM] | AUC (SB-715992) | IC50 (SB-715992) [nM] | AUC (NSC-207895) | IC50 (NSC-207895) [nM] | AUC (Docetaxel) | IC50 (Docetaxel) [nM] | AUC (JNK Inhibitor VIII) | IC50 (JNK Inhibitor VIII) [nM] | IC50 (NVP-TAE684) [nM]
OCI-AML2 (acute myeloid leukaemia, suspension) | 0.738 | 0.679 | 171 | 0.507 | 166 | 0.989 | > 1020 | 0.055 | < 20 | 0.96 | > 10000 | 0.726 | 57.4 | 0.995 | > 2000 | 0.976 | > 2560 | 0.955 | > 16000 | 0.22 | 252 | 0.687 | 22.9 | 0.872 | 11300 | 0.978 | > 12.5 | 0.994 | > 10000 | 
HUTU-80 (digestive system, adherent) | 0.704 | 0.991 | > 1000 | 0.795 | 962 | 0.984 | > 1020 | 0.015 | < 20 | 0.833 | 4960 | 0.666 | 42.2 | 0.991 | > 2000 | 0.929 | > 2560 | 0.955 | > 16000 | 0.265 | 309 | 0.54 | 10.1 | 0.605 | 2310 | 0.573 | 1.19 | 0.991 | > 10000 | 416
SF268 (glioma, adherent) | 0.775 | 0.982 | > 1000 | 0.887 | > 2560 | 0.955 | > 1020 | 0.14 | 21.1 | 0.908 | > 10000 | 0.628 | 37.1 | 0.922 | > 2000 | 0.98 | > 2560 | 0.956 | > 16000 | 0.278 | 277 | 0.775 | 54.5 | 0.518 | 1410 | 0.652 | 2.14 | 0.957 | > 10000 | 857
HCC2218 (breast, suspension) | 0.97 | 0.93 | > 1000 | 0.799 | 1610 | 0.966 | > 1020 | 0.056 | < 20 | 0.963 | > 10000 | 0.816 | 191 | 0.984 | > 2000 | 0.984 | > 2560 | 0.947 | > 16000 | 0.713 | 5900 | 0.814 | 93.4 | 0.967 | > 20000 | 0.963 | > 12.5 | 0.983 | > 10000 | > 2000

IC50 is the fitted dose that halves viability relative to control wells, and lower means more sensitive; where the fit passes the top or lowest dose, that dose stands as a limit. AUC, from the same fit, is the share of area under the viability curve across the 256-fold dose range; values near 1 show little effect. For some assays here: The top dose, if marked as inferred, was calculated from the reported fits. For some assays here: Where an entry number is given, a second screen of the drug exists; the two often differ.
